Measurements: patent US20140154252A1

Target: T1, CD37 (human) (UniProt P11049)
T1 sequence (looked up): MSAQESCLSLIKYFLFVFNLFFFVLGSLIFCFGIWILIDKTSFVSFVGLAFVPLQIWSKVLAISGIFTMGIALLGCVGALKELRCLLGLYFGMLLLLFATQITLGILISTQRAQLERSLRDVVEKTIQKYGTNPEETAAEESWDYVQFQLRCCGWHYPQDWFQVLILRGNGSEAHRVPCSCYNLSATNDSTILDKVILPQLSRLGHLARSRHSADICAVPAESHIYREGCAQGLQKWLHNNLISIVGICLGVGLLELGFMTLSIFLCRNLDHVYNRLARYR
Experiment: cell-based or functional assay

IC50 (nM), direct growth inhibition of DoHH2 cells, 96 h, ATP detection: > 100 nM
IC50 (nM), direct growth inhibition of SU-DHL-6 cells, 96 h, ATP detection: > 100 nM
B1: SMIP016 (Fc fusion, from a related filing)
chain: DIQMTQSPASLSASVGETVTITCRTSENVYSYLAWYQQKQGKSPQLLVSFAKTLAEGVPSRFSGSGSGTQFSLKISSLQPEDSGSYFCQHHSDNPWTFGGGTELEIKGGGGSGGGGSGGGGSSAVQLQQSGPESEKPGASVKISCKASGYSFTGYNMNWVKQNNGKSLEWIGNIDPYYGGTTYNRKFKGKATLTVDKSSSTAYMQLKSLTSEDSAVYYCARSVGPMDYWGQGTSVTVSSDL[in this place human IgG1 Fc with changes]
